Experimental data as given in article PMC9574860, “Chemical Toolkit for PARK7: Potent, Selective, and High-Throughput” (Journal of Medicinal Chemistry, 2022).
In all, about 7,900 compounds went through this assay and about 400 (5.1%) showed an effect of 50% or more. The list shows a part of the results.

Each compound was assayed against Parkinson's disease protein 7 (PARK7/DJ1) (human, UniProt Q99497) (assay: primary screen, percent inhibition; read as competition with a fluorescent probe by fluorescence polarization; higher = more effect of the substance). Conditions: 100 µM.
How it was run: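 Covalent fragments at 100 μM final were incubated 2 h with 0.2 μM PARK7, then 20 nM probe JYQ-107 added for a further 2 h. Fluorescence polarization read at 480/520 nm; relative FP loss versus reference controls gave remaining enzyme activity.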

Chain of Parkinson's disease protein 7 (PARK7/DJ1) (Q99497 whole entry, looked up, the tested form may be a part): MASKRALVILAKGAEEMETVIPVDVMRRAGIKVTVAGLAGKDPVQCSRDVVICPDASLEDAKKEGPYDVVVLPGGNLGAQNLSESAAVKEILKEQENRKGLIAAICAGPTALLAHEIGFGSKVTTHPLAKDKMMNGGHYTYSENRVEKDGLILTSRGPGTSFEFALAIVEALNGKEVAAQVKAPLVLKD

First: Cc1nc2ccccn2c(=O)c1CCCl
Second: CCNC(=O)C(C)n1c(S)nc2ccccc2c1=O (centres unmarked)
The Inhibition % of the first is higher: 3.99% for the first, 3.38% for the second.

Compared with `COCC(C)NC(=O)C(C#N)=Cc1cccc(C)c1C` (centres unmarked), `Cc1cc(C=C(C#N)C(=O)NC(C)C)c(C)n1C1CC1` is lower in Inhibition %: 4.67% for the first, 0.489% for the second.

First: C=CC(=O)NCC1SCCS1
Second: C=CC(=O)NCC1CCN(c2ccccc2)C1 (centres unmarked)
The Inhibition % of the first is lower: 6.16% for the first, 9.18% for the second.

First: Cc1cc(Cn2nc(-c3ccc(F)cc3)oc2=O)no1
Second: CCc1nc(C#N)c(NCc2ccc(F)cc2)o1
The Inhibition % of the first is higher: 10.2% for the first, 7.03% for the second.

First: O=c1ccc2cc(S(=O)(=O)OCC(F)(F)F)ccc2o1
Second: Cn1cc(S(=O)(=O)Oc2cccc(F)c2)c(=O)n(C)c1=O
The Inhibition % of the first is higher: 6.17% for the first, 5.3% for the second.

Compared with `CC(C)CN1C(=O)CN=C1S`, `Cc1cc(C=C(C#N)C(=O)N2CCC2)c(C)n1CC(C)C` is lower in Inhibition %: 1.24% for the first, -2.1% for the second.

First: C=CC(=O)NC1CCCc2c1cnn2C (centres unmarked)
Second: C=CC(=O)NC1CCN(c2ccc(Cl)c(F)c2)C1=O (centres unmarked)
The Inhibition % of the first is higher: 6.84% for the first, 0.956% for the second.

First: CCCn1nc(C)c(B2OC(C)(C)C(C)(C)O2)c1C
Second: CN(C)Cc1ccc(B2OC(C)(C)C(C)(C)O2)cc1.Cl
The Inhibition % of the first is higher: 39.4% for the first, 5.78% for the second.

Going from `CC(C)=C(F)C(=O)NS(=O)(=O)C=Cc1ccccc1` to `O=S(=O)(C=Cc1ccccc1)N1CCSCC1CO` (centres unmarked), the Inhibition % rises from 3.73% to 6.38%.

Going from `Cn1ccnc1C(=O)CCl` to `O=C(CCl)Nc1cccc2ncccc12`, the Inhibition % rises from 32.3% to 40.3%.

Going from `N#Cc1ncn(CCC(=O)Nc2ccc(F)c(F)c2)n1` to `N#Cc1ncn(CC(=O)c2cccc(C(F)(F)F)c2)n1`, the Inhibition % falls from 7.31% to 4.15%.

First: O=C(N1CCCCC1)n1nnc2ccccc21
Second: CC(=O)N1CCC(n2c(S)nc3ccccc3c2=O)C1 (centres unmarked)
The Inhibition % of the first is lower: 5.5% for the first, 5.52% for the second.

Compared with `c1cc2ccc(OCC3CO3)cc2[nH]1` (centres unmarked), `O=c1onc(-c2ccccc2)n1CC1CO1` (centres unmarked) is lower in Inhibition %: 5.75% for the first, 2.46% for the second.

Going from `CN(C)C(=O)n1nccc1N` to `Cc1nn(C(=O)N2CCOCC2)c(C)c1Cl`, the Inhibition % falls from 10.8% to 4.59%.

Going from `C=CC(=O)N1CCSSCC1` to `C=CC(=O)N1CCC(N(C)S(C)(=O)=O)CC1`, the Inhibition % falls from 12.4% to 5.74%.

Going from `C=CC(=O)N1CCNC(=O)C1c1ccccc1F` (centres unmarked) to `C=CC(=O)N1CCc2c1cccc2C(F)(F)F`, the Inhibition % rises from 4.97% to 5.03%.

Compared with `CCOc1ccc(C)cc1S(=O)(=O)n1ccc(C)n1`, `C=CC(=O)N1CC(Cc2cccc(C)c2)C1` is higher in Inhibition %: 3.57% for the first, 6.59% for the second.

First: N#CC1COCCN1C(=O)c1cccc(S(=O)(=O)F)c1 (centres unmarked)
Second: NS(=O)(=O)c1cccc(NC(=O)CCl)c1
The Inhibition % of the first is higher: 93.6% for the first, 14.7% for the second.

First: N#Cc1nccnc1N1CCCC2(CCCCC2)C1
Second: C=CC(=O)N1CCC(Oc2cccnc2N2CCCC2)C1 (centres unmarked)
The Inhibition % of the first is lower: 4.04% for the first, 13.2% for the second.

Compared with `C=CC(=O)N1CCC(CS(C)(=O)=O)C1` (centres unmarked), `CS(=O)(=O)N1CCN(C(=O)CCl)CC1` is lower in Inhibition %: 4.28% for the first, 2.41% for the second.

Going from `C=CC(=O)N1CCOCC1C1CCCO1` (centres unmarked) to `C=CC(=O)N1CCCCC1c1ccc(C(=O)NC)n1C` (centres unmarked), the Inhibition % falls from 11.4% to 8.51%.

Compared with `O=C(c1ccc(Cl)cc1)N1CCCCC(Cl)C1=O` (centres unmarked), `COc1cccc(C2CCCN2C(=O)CCl)c1` (centres unmarked) is lower in Inhibition %: 4.28% for the first, 2.56% for the second.

Going from `N#Cc1ccc(NS(=O)(=O)C=Cc2ccc(Cl)cc2)nc1` to `Cc1csc(C(C#N)=Cc2ccc(O)cc2)n1`, the Inhibition % falls from 9.02% to -25.7%.

First: C#CC(=O)N1CC(O)C1
Second: Cl.O=C(O)C1CCN(C(=O)C=Cc2ccc(Cl)s2)C1 (centres unmarked)
The Inhibition % of the first is lower: 7.33% for the first, 11.7% for the second.

Compared with `N#Cc1ncn(Cc2csc(C3CCCCC3)n2)n1`, `Cc1cn2c(n1)CCC(Nc1ccc(C#N)nc1)C2` (centres unmarked) is higher in Inhibition %: 3.68% for the first, 4.81% for the second.

Going from `C=CC(=O)N1CCN(CCc2cccs2)CC1` to `O=C(Oc1cccc2ccccc12)N1CCOCC1`, the Inhibition % rises from -1.19% to 0.489%.

First: CC1(C)OB(c2[nH]ncc2C(F)(F)F)OC1(C)C
Second: CSCc1cccc(B2OC(C)(C)C(C)(C)O2)c1
The Inhibition % of the first is higher: 11.9% for the first, -1.56% for the second.

Going from `CC(C1CC1)N(Cc1ccccc1)C(=O)CCl` (centres unmarked) to `O=C(CCl)Nc1ccn(Cc2ccccc2)n1`, the Inhibition % rises from 5.01% to 15.4%.

First: CC(C)CN(C(=O)CCl)C1CCS(=O)(=O)C1 (centres unmarked)
Second: CC1CCCCC1OCCNC(=O)CCl (centres unmarked)
The Inhibition % of the first is lower: 5.54% for the first, 6.68% for the second.

First: N#CC(=Cc1ccc(N)cc1)C(N)=O
Second: N#CC(=Cc1ccccc1Cl)C(N)=O
The Inhibition % of the first is higher: 8.09% for the first, -0.373% for the second.

Compared with `Cc1ccc(C#N)nc1C`, `Cc1nc(C)c(C=C(C#N)C(=O)NC(C)C)o1` is higher in Inhibition %: 2.28% for the first, 3.38% for the second.

Compared with `O=C1CCC(=O)N1CCCl`, `O=C(O)CN1CCSC1=O` is higher in Inhibition %: 1.08% for the first, 6.49% for the second.

Going from `O=C(O)Cc1ccccc1CS` to `C=CC(=O)N(C)Cc1cc2ccccc2o1`, the Inhibition % falls from 89.6% to 5.57%.

Compared with `CCc1nn(C)c(CC)c1CNC(=O)c1cccnc1S`, `O=C(Nc1ccccn1)c1cccnc1S` is higher in Inhibition %: 4.52% for the first, 5.78% for the second.

First: O=C1OCCC1Sc1nnc(-c2cccs2)o1 (centres unmarked)
Second: O=C(NC1CCc2[nH]ncc2C1)c1cccnc1S (centres unmarked)
The Inhibition % of the first is higher: 21.8% for the first, 7.8% for the second.

Compared with `N#CC(=Cc1cccc(-c2ccccc2F)c1)C(N)=O`, `N#CC=C(N)c1ccccc1` is higher in Inhibition %: 10.5% for the first, 13.9% for the second.

First: Cc1nc2ccc(NC(=O)CN3CCSC3=O)cc2s1
Second: Cc1ccc(F)c(N(C#N)CCN2CCCS2(=O)=O)c1
The Inhibition % of the first is higher: 8.16% for the first, 6.92% for the second.

First: NCC1CCN(C(=O)C=Cc2cncc(F)c2)C1 (centres unmarked)
Second: C=CC(=O)N[C@H]1C[C@H](c2ccc(OC)c(F)c2)C1
The Inhibition % of the first is lower: 7.15% for the first, 15% for the second.

First: C=CC(=O)NC(C)c1nnc(C)[nH]1 (centres unmarked)
Second: CC(C)C1NC(=O)C12CC1OC1C2 (centres unmarked)
The Inhibition % of the first is lower: 3.25% for the first, 5.37% for the second.

First: Nc1cc2ccccc2nc1S
Second: Sc1ncnc2ccccc12
The Inhibition % of the first is higher: 52% for the first, 6.43% for the second.
